PMC4336329 (PLoS ONE, 2015)
The campaign covered roughly 310,000 compounds. About 14,000 (4.5%) showed an effect of 50% or more. Effects have a minus sign here. This is one part of the list.

Each molecule was assayed against human ether-à-go-go-related gene (hERG) potassium channel (human, UniProt Q12809) (assay: primary screen, population patch clamp on CHO cells stably expressing hERG).
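Further: peak tail current of the secondary pulse compared with the same well before compound.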

Sequence of human ether-à-go-go-related gene (hERG) potassium channel (Q12809 whole entry, looked up): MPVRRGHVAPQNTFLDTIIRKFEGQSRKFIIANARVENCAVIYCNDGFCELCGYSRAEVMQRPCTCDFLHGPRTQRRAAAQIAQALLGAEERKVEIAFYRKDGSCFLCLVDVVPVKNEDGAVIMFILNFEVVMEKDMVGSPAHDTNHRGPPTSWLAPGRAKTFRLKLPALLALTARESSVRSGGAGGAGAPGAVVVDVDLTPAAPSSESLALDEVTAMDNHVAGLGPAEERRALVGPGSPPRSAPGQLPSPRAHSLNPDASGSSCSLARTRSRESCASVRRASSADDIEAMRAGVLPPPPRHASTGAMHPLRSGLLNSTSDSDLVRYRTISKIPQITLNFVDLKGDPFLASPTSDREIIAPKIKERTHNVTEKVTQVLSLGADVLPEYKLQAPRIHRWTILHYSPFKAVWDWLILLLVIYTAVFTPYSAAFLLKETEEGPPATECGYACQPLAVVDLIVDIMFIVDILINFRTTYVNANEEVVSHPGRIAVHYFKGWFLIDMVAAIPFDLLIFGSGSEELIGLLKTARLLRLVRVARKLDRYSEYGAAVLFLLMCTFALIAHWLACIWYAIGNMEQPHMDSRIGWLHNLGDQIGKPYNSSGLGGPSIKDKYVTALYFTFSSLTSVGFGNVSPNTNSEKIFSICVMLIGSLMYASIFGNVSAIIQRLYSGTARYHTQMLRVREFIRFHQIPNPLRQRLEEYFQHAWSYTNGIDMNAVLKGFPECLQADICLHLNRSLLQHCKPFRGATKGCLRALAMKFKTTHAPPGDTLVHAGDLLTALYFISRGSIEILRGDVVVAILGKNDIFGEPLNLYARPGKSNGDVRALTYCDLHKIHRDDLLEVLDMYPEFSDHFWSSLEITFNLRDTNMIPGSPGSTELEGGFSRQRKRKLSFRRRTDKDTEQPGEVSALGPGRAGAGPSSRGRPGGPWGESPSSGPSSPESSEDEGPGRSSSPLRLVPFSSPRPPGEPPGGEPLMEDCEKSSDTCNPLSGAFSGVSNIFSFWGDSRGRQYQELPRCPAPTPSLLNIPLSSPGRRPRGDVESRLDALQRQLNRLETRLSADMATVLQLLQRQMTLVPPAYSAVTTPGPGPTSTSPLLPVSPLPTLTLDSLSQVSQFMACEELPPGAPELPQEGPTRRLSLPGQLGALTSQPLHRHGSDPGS

SMILES | hERG current change (%, negative = inhibition) at 10uM
Cc1c(C#N)c(N=CN(C)C)c(C(=O)c2ccc(Br)cc2)n1-c1ccc(Cl)cc1 | 5.81%
Cc1cc([N+](=O)[O-])nn1CC(=O)Nc1ccc(Cc2ccncc2)cc1 | -10.9%
CC1CCN(CC(C)CNC(=O)c2cc(-c3ccccn3)nc3ccccc23)CC1 (stereo not shown) | -62.5%
CC(C)NC(=O)CCCc1c[nH]c2ccccc12 | 25.2%
CCOC(=O)C(O)(c1ccc(N=c2ccccn2C)cc1)C(F)(F)F (stereo not shown) | -10.8%
N#CC(C#N)=C1C=CC=CN1/C(=C\c1ccccc1Cl)C(=O)c1ccccc1 | 8.73%
c1ccc2[nH]c(C3CC3)nc2c1 | 16.4%
Cc1nnc2sc(-c3ccncc3)nn12 | 6.63%
O=C(NCc1cccs1)c1ccncc1 | 0.723%
O=C(O)C1CCCN(S(=O)(=O)c2ccc3c(c2)OCCO3)C1 (stereo not shown) | 39.7%
CC1Sc2ccc(S(=O)(=O)N3CCC(C(=O)NCC(C)c4ccccc4)CC3)cc2NC1=O (stereo not shown) | -10.5%
Cc1cc(C)c(S(=O)(=O)N2CCCC(C(=O)NCc3ccncc3)C2)c(C)c1 (stereo not shown) | -18.9%
COc1ccccc1C1CC(c2ccccc2)=NN1C(=O)c1ccccc1 (stereo not shown) | 11.9%
O=C(Nc1ccc([N+](=O)[O-])cn1)c1cc(-c2cccc(Cl)c2)nc2ccccc12 | -8.44%
CC[C@@H](CO)NC(=O)[C@@H]1C=C2c3cccc4c3c(cn4C)C[C@H]2N(C)C1.O=C([O-])/C=C\C(=O)[O-] | 2.55%
COc1ccc(-c2nc(CSCC(=O)N3CCc4ccccc43)c(C)o2)cc1OC | -3.67%
COC(=O)c1ccc(C(=O)OC)c(NC(=O)COC(=O)C2CCCCC2)c1 | 2.27%
O=C(Nc1ccccc1Oc1ccccc1)c1cc([N+](=O)[O-])ccc1Cl | -17.7%
N#Cc1cc2ccccc2n2nnnc12 | -2.06%
COCCn1c(SC(C)C(=O)NC2CCCCC2C)nc2ccccc2c1=O (stereo not shown) | -2.99%
CCCS/C(N)=N/N=C/c1cc(C)ccc1O | 9.36%
Cn1nnnc1Sc1ncnc2scc(-c3cccs3)c12 | -9.55%
CCN(CC)C(=O)CSc1nc2ncccc2[nH]1 | -3.36%

SMILES | hERG current change (%, negative = inhibition) at 10uM
COC(=O)C1=C(C)N(C)C(=O)NC1c1cc(Cl)c(O)c(OC)c1 (stereo not shown) | -4.18%
O=C(OCCCN1CCCC1)C1(c2ccccc2)CCCC1 | -16.8%
COc1ccc(C(=O)NNC(=O)c2cccc(F)c2)cc1 | 1.2%
O=S(=O)(NCc1cccnc1)c1ccc(Cl)nc1 | 12.6%
CC(C)(C)c1csc(NC(=O)Cc2ccc(S(=O)(=O)N3CCOCC3)s2)n1 | -33.6%
CC(=O)c1ccc(NC(=S)NCc2ccco2)cc1 | 20.2%
NC(=O)c1ccc(OCC(F)(F)C(F)(F)C(F)(F)C(F)(F)C(F)(F)C(F)F)cc1 | 3.8%
CC(=O)Nc1ccc(OCC(=O)NCc2ccccc2)cc1 | 19%
Cc1nc(N2CCOCC2)[nH]c(=O)c1C(O)C(Cl)(Cl)Cl (stereo not shown) | 8.9%
CCOc1cc(N2CCOCC2)c(OCC)cc1NC(=O)CN1CCC(Cc2ccccc2)CC1 | -3.67%
Cc1ccc(-c2csc(N/N=C/c3ccco3)n2)cc1 | -5.35%
O=C1C2C3CCC(C3)C2C(=O)N1c1ccc(OS(=O)(=O)c2ccccc2)cc1 (stereo not shown) | 3.05%
CCN(CC(=O)Nc1cc(Cl)ccc1C)C(=O)COc1cccc2c1OC(C)(C)C2 | -4.2%
COCCN(C(C)=O)c1nnc(-c2cnccn2)s1 | 6.11%
COc1ccc2c(c1OC)C(=O)OC2C1c2c(cc3c(c2OC)OCO3)CCN1C.Cl (stereo not shown) | -1.88%
CC/C(O)=C1\C(=O)CC(c2ccccc2)CC1=NCCC(=O)O (stereo not shown) | 15.6%
Cc1cc(=O)n2nc(N3CCC(C(=O)NCC(C)c4ccccc4)CC3)sc2n1 (stereo not shown) | -13%
O=C1CC(c2ccco2)Sc2nc3ccccc3n21 (stereo not shown) | 6.09%
COc1cc(C(=O)NCc2ccc(-c3nc4ccccc4s3)cc2)cc(OC)c1OC | 0.994%
CCOC(=O)c1cc[n+](CC(=O)c2ccc(F)cc2)cc1.[Br-] | -15.8%
COC(=O)c1ccc(NC(=O)COc2cccc(-n3cnnn3)c2)cc1 | 6.77%
Cc1cccc(C)c1OCCCCN1CCCCC1.O=C(O)C(=O)O | -11.8%
O=C(CC(=O)N/N=C/c1cccs1)NCc1ccccc1 | 15.3%

SMILES | hERG current change (%, negative = inhibition) at 10uM
O=S(=O)(Nc1nc2ccccc2nc1Cl)c1ccccc1C(F)(F)F | -5.32%
CCC(=O)NCCCCCCNC(=O)CC | 0.405%
C=CCSc1nnc2c(n1)OC(c1cccnc1)Nc1ccccc1-2 (stereo not shown) | -22.1%
Nc1nc(SCc2ccccc2Cl)ns1 | -22%
CC1CCN(c2nnc(-c3cccs3)c3ccccc23)CC1 | -41.6%
Nc1ccc(N2CCOCC2)c2nonc12 | 56.7%
CCOc1ccc(C(=O)NC2CCN(S(=O)(=O)c3ccccc3)CC2)cc1 | -4.42%
Cn1c(SCC(=O)NC2CCCC2)nnc1-c1ccco1 | 17.3%
COC(=O)CC1(CC(=O)OC)C(=O)NC(=O)NC1=O | 7.37%
CCCCNC(=O)c1ccc(SCC(=O)N(CC)CC)c([N+](=O)[O-])c1 | 5.66%
O=C(c1cccc2ccccc12)N1CCN(c2ccc([N+](=O)[O-])c(N3CCOCC3)c2)CC1 | -13.7%
CCC(=O)N1CCN(c2ccccc2NC(=O)c2ccc(-c3cccc([N+](=O)[O-])c3)o2)CC1 | -34.1%
Fc1ccc(CCNCc2ccc(Br)cc2)cc1 | -53.8%
O=C(N/N=C/c1ccccn1)c1cccc(NC(=O)c2ccc(Cl)cc2)c1 | -11.7%
CS(=O)(=O)N1CCN(c2ccccc2NC(=O)c2cc(Br)ccc2Cl)CC1 | -30.3%
COc1ccc(-n2cnnc2SCC(=O)Nc2cc(C(C)(C)C)nn2-c2ccccc2)cc1 | -1.25%
COc1ccc(C[C@@H]2c3cc(O)c(OC)cc3CCN2C)cc1O.[O-][Cl+3]([O-])([O-])O | 2.2%
CCOC(=O)c1ccc(Oc2ccc(C(F)(F)F)cn2)cc1 | 2.06%
O=C(Nc1nnc(Cc2ccccc2)s1)Nc1ccccc1F | 11.1%
COC(=O)c1ccc(COc2nc(C)cc(C)c2C#N)o1 | -24.9%
Cc1cnc(C(=O)OCC(=O)c2ccc(-c3ccccc3)cc2)cn1 | 11.1%
CCOC(=O)C(C)N(c1ccccc1Cl)S(C)(=O)=O (stereo not shown) | -13.4%
Cc1ccc(CCN2CC(C(=O)N3CCN(c4ccc(F)cc4)CC3)CC2=O)cc1 (stereo not shown) | -57.4%

SMILES | hERG current change (%, negative = inhibition) at 10uM
Cc1ccc(NC(=S)NCc2cccnc2)cc1 | -16.9%
CCOP(=O)(Cc1ccccc1)OCC | 20.7%
COc1ccc2nc3c(c(-c4ccccc4)c2c1)CCC3 | -5.34%
COc1ccc(-c2nnc3sc(CCN4C(=O)c5ccccc5C4=O)nn23)cc1 | -10.3%
Cc1ccc(S(=O)(=O)N2CCN(C(=O)C(C)Cn3cncn3)CC2)cc1 (stereo not shown) | 4.36%
COc1cccc(CNC(=O)c2ccccc2N)c1 | -10.8%
CC1CCN(C(=O)COC(=O)COc2ccccc2C#N)CC1 | 7.56%
COc1cccc(NC(=O)c2ccc3c(c2)N(C)CCS3)c1 | -6.67%
O=C(COC(=O)c1cc(Br)ccc1Cl)NC1CCCC1 | 4.64%
CC(C)NC(=O)COc1ccc(OCc2ccccc2)cc1 | 4.16%
CN(C)c1ccc(/C=N/NC(=O)C(=O)N2CCCCCC2)cc1 | 18%
Cc1cc(NC(=O)Nc2cccc([N+](=O)[O-])c2)no1 | 10.6%
CN(C[C@H](Cc1ccccc1)N(C[C@H](Cc1ccccc1)N(CC1(c2ccccc2)CC1)N=O)N=O)N=O.[Na+] | 12.8%
O=C(O)C(=O)O.O=C(c1cccc(F)c1)N1CCN(Cc2cccc(Br)c2)CC1 | -48.6%
Cc1ccc(-n2c(CNCc3ccc(F)cc3)nc3ccccc3c2=O)cc1 | -25.9%
COCCOC(=O)c1c(C)oc2cc(Br)c(OCC(N)=O)cc12 | 10.6%
CCOc1ccc2nc(NC(=O)CSc3nc4c(c(=O)n(C)c(=O)n4C)n3C(C)C)sc2c1 | -9.49%
Cc1ccc(-c2csc3ncn(CC(=O)N4CCOCC4)c(=O)c23)cc1C | -5.43%
COC(=O)c1ccc(NC(=O)CN2CCOCC2)cc1 | 11.7%
Cc1cc(C)c(S(=O)(=O)c2ccccc2F)c(=O)[nH]1 | 30.6%
CSc1ncccc1C(=O)OCc1ccccc1Cl | 17%
COc1ccc(CNC(=O)c2c(-c3c(F)cccc3Cl)noc2C)cc1 | -0.124%
